Hit rate of the full screen: of about 52,000 compounds, about 1,700 (3.3%) were called active. Cut-off read from the data, not from the text of the source: active = survival mostly below about 52% (no sharp cut-off); inactive = mostly above about 56%. This is one part of the list.
System: Wild type
Assay: S. aureus survival, RN4220 and DeltatarO strains – OD600, teichoic acid synthesis inhibitors, primary screen (AID 463173)
Conditions: S. aureus RN4220 wild type/DeltatarO growth, OD600, 18 h, active compounds read low, screened at 18.75 µg/mL (by protocol)

Row | Compound | survival
1 | C#CCSc1nc2sc3c(c2c(=O)n1Cc1ccccc1)CCCC3 | inactive: 44%
2 | COc1ccccc1OCCSc1nc2ccccc2n1CC(=O)N1CCOCC1 | inactive: 108%
3 | Cc1ccc(CS(=O)(=O)c2ncc(Cl)c(C(=O)Nc3nc4ccc(C)cc4s3)n2)cc1 | inactive: 26%
4 | NCCS(=O)(=O)N1CCCC1 | inactive: 110%
5 | Cc1n[nH]c(C)c1S(=O)(=O)N(CC(=O)Nc1ccc(C(F)(F)F)cc1)c1ccc(C(C)C)cc1 | inactive: 54%
6 | Cc1ccccc1Nc1c(-c2ccco2)nc2c(C)cccn12 | active: 1%
7 | CC1CCCCN1S(=O)(=O)c1ccc(C(=O)Nc2sc3c(c2C(N)=O)CC(C)(C)NC3(C)C)cc1 (centres undefined) | inactive: 76%
8 | Cc1ccc(NC(=O)CCS(=O)(=O)c2cccc3nonc23)cc1Cl | inactive: 83%
9 | CCOC(=O)c1ccc(-n2c(C)nc3c(cnn3-c3ccc(Cl)cc3)c2=O)cc1 | inactive: 71%
10 | CCOCCCNC(=O)c1[nH]c2cc(C)ccc2c1Sc1ccc(Cl)cc1 | inactive: 86%
11 | CCCCN(CCCC)CCNC(=O)Cn1nc(CC)n2c(cc3sc(C)cc32)c1=O | inactive: 80%
12 | O=S1(=O)c2ccccc2N(Cc2cccc(C(F)(F)F)c2)c2ccccc21 | inactive: 87%
13 | Cc1cccc(NC(=O)Cn2c(=O)n(CCCS(=O)(=O)C3CCCCC3)c(=O)c3ccccc32)c1 | inactive: 82%
14 | COc1ccc(C(=O)N2c3ccccc3C(C)(c3ccc(Cl)cc3)CC2(C)C)cc1 (centres undefined) | active: 6%
15 | COc1ccc(CCNC(=O)c2c(O)nc3c(C)cccn3c2=O)cc1 | inactive: 73%
16 | Cc1ccc(-c2onc(C)c2C)cc1S(=O)(=O)N1c2ccccc2CC1C (centres undefined) | inactive: 71%
17 | CCOCCc1nn2c(=O)cc(COC(=O)c3ccccc3NC(=O)C3CCCCC3)nc2s1 | inactive: 74%
18 | COc1cc(OC)c(N(C)C(=O)CCNC(=O)Cn2cnc3ccccc3c2=O)cc1Cl | inactive: 70%
19 | CCN(CC)C(=O)C1CCN(Cc2ccccc2F)CC1 | inactive: 107%
20 | CN(C)CCNC(=O)Cn1c(=O)c2cccn2c2ccc(F)cc21 | inactive: 119%
21 | O=C(NCCn1cc(SCc2ccc(Cl)cc2)c2ccccc21)c1cccs1 | inactive: 66%
22 | COc1cccc(-c2nc(SCC(=O)Nc3ccc4c(c3)OCCO4)c(-c3ccccc3)[nH]2)c1 | inactive: 71%
23 | CC1CN(C(=O)c2cc3n(n2)C(C(F)(F)F)CC(c2ccco2)N3)CC(C)O1 (centres undefined) | inactive: 100%

Row | Compound | survival
24 | CCCCN(CC)C(=O)CSc1nc2n[nH]c(C)c2c(=N)n1-c1cccc(Cl)c1 | active: -1%
25 | CCOC(=O)c1[nH]c(C)c(CCC(=O)N2CCN(c3cccc(OC)c3)CC2)c1C | inactive: 72%
26 | CCOc1ccc(NC(=O)Cn2ncc3c2-c2cc(C)ccc2OC3)cc1 | inactive: 87%
27 | Cc1ccc(NC(=O)Cc2ccc(-n3c(C)nc4cccnc43)cc2)c(Cl)c1 | inactive: 153%
28 | CCC(=O)N1CCc2cc(Br)cc(S(=O)(=O)CCC(=O)NCc3ccccc3OC)c21 | inactive: 65%
29 | Cc1ccc(-c2noc(-c3ccccc3NC(=O)c3ccccc3)n2)cc1 | inactive: 72%
30 | Cc1ccc(CNC(=O)C(=O)Nc2c3c(nn2-c2ccccc2)CSC3)cc1 | inactive: 82%
31 | C=CCN(CC=C)C(=O)c1ccc(SC)cc1OC | inactive: 88%
32 | COc1ccc(CCNC(=O)C(=O)Nc2ccccc2F)cc1 | inactive: 75%
33 | COc1ccccc1C(=O)NCCn1cc(SCC(=O)Nc2ccccc2F)c2ccccc21 | inactive: 65%
34 | CC1CCN(S(=O)(=O)c2ccc3c(c2)N(CC(=O)NC(C)c2ccccc2)C(=O)CS3)CC1 (centres undefined) | inactive: 88%
35 | O=C(Cc1cccs1)NCCCc1ccccc1 | inactive: 112%
36 | O=C(NCc1ccccc1)c1ccc(CNS(=O)(=O)c2ccc(Br)cc2)cc1 | inactive: 89%
37 | COc1ccccc1CNS(=O)(=O)c1ccc2c(c1)CC(C)N2C(C)=O (centres undefined) | inactive: 82%
38 | Cc1ccc(C)c(N2CCN(S(=O)(=O)c3ccc4[nH]c5c(c4c3)CCCCC5)CC2)c1 | inactive: 89%
39 | CC(C)Cn1cc(NC(=O)N2CCN(c3cccc(Cl)c3)CC2)c2ccccc2c1=O | inactive: 77%
40 | CCc1ccc(NC(=O)N2CCOc3ccc(Cl)cc32)cc1 | inactive: 79%
41 | COc1cc(Cl)c(S(=O)(=O)NCCc2c(C)[nH]c3c(C)cccc23)cc1Cl | inactive: 108%
42 | Cc1ccc(-c2nc(NC(=O)CSc3cc(C)c4ccccc4n3)ns2)cc1 | inactive: 71%
43 | Cc1cc(C)c(NC(=O)c2cc(S(=O)(=O)N3CCC4(CC3)OCCO4)ccc2F)c(C)c1 | inactive: 73%
44 | COc1ccc2sc(C)[n+](CCO)c2c1 | inactive: 97%
45 | COC(=O)c1ccc(NC(=O)CC2C(=O)N(c3cccc(OC)c3)C(=O)N2Cc2cccs2)cc1 (centres undefined) | inactive: 63%
46 | COc1ccc(Cn2c(C(=O)O)c(CNCc3ccccc3F)c3ccc(OC)cc32)cc1 | inactive: 81%

Row | Compound | survival
47 | COC(=O)c1ccc(C2c3c(-c4ccccc4O)n[nH]c3C(=O)N2Cc2cccnc2)cc1 (centres undefined) | inactive: 80%
48 | CCN(CCCNC(=O)Cn1ncc2c3ccccc3n(C)c2c1=O)Cc1ccccc1 | inactive: 80%
49 | CCCSc1ncc(Cl)c(C(=O)Nc2ccc(S(=O)(=O)N(C)c3ccccc3)cc2)n1 | inactive: 84%
50 | CCS(=O)(=O)n1nc(-c2ccco2)nc1N | inactive: 110%
51 | O=C(Nc1nnc(S(=O)(=O)N2CCCc3ccccc32)s1)c1cccc(Cl)c1 | active: 6%
52 | CCc1ccc(NC(=O)CSc2nc(=O)n(Cc3ccccn3)c3c2CCC3)cc1 | inactive: 66%
53 | COc1cccc(C2C(C(=O)Nc3ccc(C)cc3C)=C(C)Nc3c(C(=O)Nc4ccccc4)cnn32)c1 (centres undefined) | inactive: 85%
54 | O=C(Nc1cc(-c2nc3cc(Cl)ccc3o2)ccc1Cl)c1ccco1 | inactive: 68%
55 | CC1CCCN(C(=O)CSc2c3c(nc4cc(Cl)ccc24)CCCC3)C1 (centres undefined) | active: -1%
56 | Cc1cc(Cl)ccc1OCC(=O)N=Nc1c(O)[nH]c(=O)[nH]c1=O | inactive: 118%
57 | COc1ccc(NC(=O)c2cc(S(=O)(=O)N3CCOCC3)ccc2OC)cc1 | inactive: 82%
58 | CCc1cccc(C)c1NS(=O)(=O)c1c(C(=O)N2CCC(C)CC2)c(C)n(C)c1C | inactive: 55%
59 | COc1ccc(S(=O)(=O)N2CCC(C(=O)Nc3ccc(Oc4ccccc4)cc3)CC2)cc1 | inactive: 98%
60 | Cc1ccc(C)c(NC(=O)N2CCN(C(=O)c3nsc4ccccc34)CC2)c1 | inactive: 69%
61 | COc1cc(Cl)c(C)cc1NC(=O)C1CCN(c2nc3ccccc3n3cccc23)CC1 | inactive: 78%
62 | COc1ccc(S(=O)(=O)Nc2cccc(-c3ccc(N4CCCC4)nn3)c2)c(OC)c1 | inactive: 69%
63 | COc1ccc(OC)c(NS(=O)(=O)c2ccc3c(c2)C(C)(C)C(=O)N3C)c1 | inactive: 78%
64 | CCOc1ccccc1N(CC)C(=O)Cn1ncc2c([nH]c3ccccc32)c1=O | inactive: 64%
65 | NC(=O)C1CCN(C(=O)c2ccc(NC(=O)c3nsc4ccccc34)cc2)CC1 | inactive: 82%
66 | COc1cccc(CNC(=O)c2ccc3c(c2)c(C)c(C)n3Cc2ccccc2)c1 | inactive: 72%
67 | COc1ccc(CNC(=O)c2cc3cc4cc(OC)ccc4nc3o2)cc1 | inactive: 93%
68 | Cc1nnc(N2CCC(C(=O)NC3CCCCC3)CC2)c2nn(-c3ccccc3)c(C)c12 | inactive: 84%
69 | Clc1cccc(-c2ccc(CNCCSc3nnnn3-c3ccccc3)o2)c1 | inactive: 41%

Row | Compound | survival
70 | CC(=O)c1ccc(NC(=O)c2nc3ccccc3nc2N2CCCCC2)cc1 | inactive: 66%
71 | Cc1ccc2cc(C#N)c(SCC(=O)Nc3ccccc3)nc2c1 | inactive: 102%
72 | O=C(c1ccccc1)N1CCN(CCc2ccncc2)CC1 | inactive: 84%
73 | CCOc1ccc(CCNC(=O)c2cn(C)c3ccc(S(=O)(=O)N4CCCCC4)cc3c2=O)cc1OCC | inactive: 132%
74 | O=C(NC1CCCCC1)C(c1ccc(O)c(O)c1)N(C(=O)Cn1nnc2ccccc21)C1CCCCC1 (centres undefined) | inactive: 113%
75 | CC1=C(c2ccc(C)c(C)c2)S(=O)(=O)NC1=NCc1ccccc1Cl | inactive: 86%
76 | Cc1cc(C)c(NC(=O)c2sc3nc(C)cc(C)c3c2NC(=O)c2ccccc2)c(C)c1 | inactive: 70%
77 | CCOC(=O)c1c(C)[nH]c(C)c1S(=O)(=O)N1CCC(C(=O)Nc2cc(Cl)ccc2OC)CC1 | inactive: 81%
78 | COc1ccccc1C(=O)Nc1cccc(C(=O)OCc2cc(=O)n3cc(C)sc3n2)c1 | inactive: 75%
79 | CCc1nc2nc(C)c(NS(=O)(=O)c3ccc(C(C)(C)C)cc3)c(=O)n2[nH]1 | inactive: 86%
80 | O=C(CCn1cnc2ccccc2c1=O)NCc1ccccc1Cl | inactive: 98%
81 | O=C(CNC(=O)c1ccc(F)cc1)OCc1cc(=O)n2nc(C3CC3)sc2n1 | inactive: 71%
82 | CCc1nn2c(=O)cc(COC(=O)COc3ccc(OC)cc3)nc2s1 | inactive: 82%
83 | COC(=O)CN1C(=O)CSc2ccc(S(=O)(=O)Nc3cc(C)ccc3C)cc21 | inactive: 19%
84 | CCC(=O)N1c2ccccc2CC1C(=O)NCCc1ccc(OC)c(OC)c1 (centres undefined) | inactive: 95%
85 | Cc1c(C(=O)Nc2cccc(C(F)(F)F)c2)oc2ccc3c(c12)C(=O)CC(C)(C)O3 | inactive: 93%
86 | COc1ccc(-c2nc(C)c(CCNS(=O)(=O)c3cc(Cl)ccc3Cl)s2)cc1 | inactive: 87%
87 | CCc1ccc(S(=O)(=O)Nc2cc3c(C(=O)OCc4ccccc4)c(C)oc3c3ccccc23)cc1 | inactive: 83%
88 | CCOC(=O)c1sc2ncn(CC(=O)Nc3ccc(OCC)cc3)c(=O)c2c1C | inactive: 67%
89 | Cc1c(NC(=O)c2ccc(-c3cccc([N+](=O)[O-])c3)o2)cccc1-c1nc2cc(Cl)ccc2o1 | inactive: 84%
